Measured values from paper PMC5998080, “Structural and functional analysis of mRNA export regulation by the nuclear pore complex” (Nature Communications, 2018).
No constants are given. Whether binding was seen depends on the method and setting. Some results given as binding are weak or reduced against the parent protein; the word gives no strength. For some of these results: Tags and fused reporters may be left off the sequences shown.

T1: S. cerevisiae Gle1^CTD, purified alone (from His6-scGle1^CTD) (S. cerevisiae) (UniProt Q12315)
T1 sequence: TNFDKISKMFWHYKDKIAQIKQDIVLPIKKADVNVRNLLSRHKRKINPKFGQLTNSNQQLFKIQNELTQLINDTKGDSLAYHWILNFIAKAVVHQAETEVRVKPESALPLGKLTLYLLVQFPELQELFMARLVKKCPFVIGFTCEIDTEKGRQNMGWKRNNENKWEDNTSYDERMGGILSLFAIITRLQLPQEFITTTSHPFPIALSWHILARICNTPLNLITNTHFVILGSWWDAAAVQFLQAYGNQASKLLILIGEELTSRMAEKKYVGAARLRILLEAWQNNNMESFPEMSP

T2: S. cerevisiae Gle1 C-terminal domain (Gle1^CTD), co-expressed with Nup42^GBM (S. cerevisiae) (UniProt Q12315)
T2 sequence: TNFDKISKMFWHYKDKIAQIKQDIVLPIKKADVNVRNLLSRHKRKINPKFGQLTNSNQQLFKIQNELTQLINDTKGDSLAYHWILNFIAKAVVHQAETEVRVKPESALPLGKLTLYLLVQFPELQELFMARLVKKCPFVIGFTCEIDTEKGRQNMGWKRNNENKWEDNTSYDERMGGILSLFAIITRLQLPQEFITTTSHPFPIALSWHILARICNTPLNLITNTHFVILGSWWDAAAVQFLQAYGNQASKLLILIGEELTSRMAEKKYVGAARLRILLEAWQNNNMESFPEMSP

T3: H. sapiens Gle1 C-terminal domain (Gle1^CTD, residues 382–698) (human) (UniProt Q53GS7)
T3 sequence: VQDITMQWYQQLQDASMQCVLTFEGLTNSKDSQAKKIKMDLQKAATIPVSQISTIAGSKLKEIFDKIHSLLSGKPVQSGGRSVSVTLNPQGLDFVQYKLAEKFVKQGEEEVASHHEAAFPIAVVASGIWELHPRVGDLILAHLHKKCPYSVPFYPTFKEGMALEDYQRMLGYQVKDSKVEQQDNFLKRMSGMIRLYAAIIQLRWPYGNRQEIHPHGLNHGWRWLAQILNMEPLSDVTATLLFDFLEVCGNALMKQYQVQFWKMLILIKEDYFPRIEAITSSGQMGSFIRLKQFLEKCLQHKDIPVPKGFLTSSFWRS


What was measured:
[1] = biological target: T1, S. cerevisiae Gle1^CTD, purified alone (from His6-scGle1^CTD) (S. cerevisiae); assay: SEC; S. cerevisiae Gle1^CTD with Nup42^GBM and its variants; Superdex 200 10/300 GL or Superdex 75 10/300 GL; 20 mM TRIS (pH 8.0), 100 mM NaCl, 5 mM DTT; both purified
[2] = biological target: T2, S. cerevisiae Gle1 C-terminal domain (Gle1^CTD), co-expressed with Nup42^GBM (S. cerevisiae); assay: crystal structure; S. cerevisiae Gle1^CTD•Nup42^GBM, co-expressed and co-purified; 1.75 Å; both purified
[3] = biological target: T3, H. sapiens Gle1 C-terminal domain (Gle1^CTD, residues 382–698) (human); assay: crystal structure; H. sapiens Gle1^CTD•Nup42^GBM, co-expressed and co-purified; 2.8 Å; both purified
[4] = biological target: T3, H. sapiens Gle1 C-terminal domain (Gle1^CTD, residues 382–698) (human); assay: crystal structure; H. sapiens Gle1^CTD•Nup42^GBM•DDX19^∆N53, reconstituted from equimolar purified Gle1^CTD•Nup42^GBM and DDX19^∆N53; with ADP 3.6 Å or AMP-PNP•Mg^2+ 3.4 Å; both purified

Binder | binding [1] | also measured
ELADLAEETLKIDRANKFELGLVPDIPPPPALVA (domain or fragment, UniProt P49686 397-430) [S. cerevisiae Nup42^GBM F409D] | binds | 
ELADLAEETLKIFRANKFELGLVPDIPPPPALVA (domain or fragment, UniProt P49686 397-430) [S. cerevisiae Nup42 Gle1-binding motif (Nup42^GBM), co-expressed with Gle1^CTD] |  | binding [2]: binds
IIATDNVLFTPRDKLTVEELEQFQSKKFTLGKIPLKPPPLELLNV (domain or fragment, UniProt O15504 379-423) [H. sapiens Nup42 Gle1-binding motif (Nup42^GBM, residues 379–423)] |  | binding [3]: binds; binding [4]: binds
ELADLAEETLKIFRANKFELGLVPDIPPPPALVA (domain or fragment, UniProt P49686 397-430) [S. cerevisiae Nup42^GBM, purified alone (from His6-SUMO-scNup42^GBM-His6)] | binds | 
ELADLAEETLKIFRANKDELGLVPDIPPPPALVA (domain or fragment, UniProt P49686 397-430) [S. cerevisiae Nup42^GBM F414D] | no binding | 
ELADLAEETLKIDRANKDELGLVPDIPPPPALVA (domain or fragment, UniProt P49686 397-430) [S. cerevisiae Nup42^GBM F409D/F414D] | no binding | 
